Patent US20250018020A1 (ALTOR BIOSCIENCE, published 2025)

Molecular target: IL-18/IL-15RαSu/Fc fusion protein (human)
Experiment: co-expression in CHO cells
From the text: The IL-18/IL-15RαSu/Fc and IL-12/IL-15N72D constructs were cloned into expression vectors as described previously (U.S. Pat. No. 8,507,222, at Example 1, incorporated herein by reference), and the expression vectors were transfected into CHO cells. Co-expression of the two constructs in CHO cells allowed for formation and secretion of the soluble IL-12/IL-15N72D:IL-18/IL-15RαSu/Fc fusion protein complex (referred to as hIL12/IL18/TxM), which can be purified by Protein A affinity and other chromatography methods.

binding result: binds
B1: IL-12/IL-15N72D fusion protein (other)
chain: IWELKKDVYVVELDWYPDAPGEMVVLTCDTPEEDGITWTLDQSSEVLGSGKTLTIQVKEFGDAGQYTCHKGGEVLSHSLLLLHKKEDGIWSTDILKDQKEPKNKTFLRCEAKNYSGRFTCWWLTTISTDLTFSVKSSRGSSDPQGVTCGAATLSAERVRGDNKEYEYSVECQEDSACPAAEESLPIEVMVDAVHKLKYENYTSSFFIRDIIKPDPPKNLQLKPLKNSRQVEVSWEYPDTWSTPHSYFSLTFCVQVQGKSKREKKDRVFTDKTSATVICRKNASISVRAQDRYYSSSWSEWASVPCSGGGGSGGGGSGGGGSRNLPVATPDPGMFPCLHHSQNLLRAVSNMLQKARQTLEFYPCTSEEIDHEDITKDKTSTVEACLPLELTKNESCLNSRETSFITNGSCLASRKTSFMMALCLSSIYEDLKMYQVEFKTMNAKLLMDPKRQIFLDQNMLAVIDELMQALNFNSETVPQKSSLEEPDFYKTKIKLCILLHAFRIRAVTIDRVMSYLNAS[in this place about 120 residues]
notes: Secreted from CHO cells
